From publication PMC4552080
No constants are given. Whether binding was seen depends on the method and setting. In cells and extracts the contact can be indirect. Some binding calls cover weakened binding; strength is not graded here. For some of these results: Sequences can lack the tags named with a protein.

Amino acid sequences for entries named in this document (tags omitted). A change or cut given only in a name is not applied to a line headed by its entry. Chains listed by the source or under a name are the forms on record and can include a tag or linker.
UniProt P08151: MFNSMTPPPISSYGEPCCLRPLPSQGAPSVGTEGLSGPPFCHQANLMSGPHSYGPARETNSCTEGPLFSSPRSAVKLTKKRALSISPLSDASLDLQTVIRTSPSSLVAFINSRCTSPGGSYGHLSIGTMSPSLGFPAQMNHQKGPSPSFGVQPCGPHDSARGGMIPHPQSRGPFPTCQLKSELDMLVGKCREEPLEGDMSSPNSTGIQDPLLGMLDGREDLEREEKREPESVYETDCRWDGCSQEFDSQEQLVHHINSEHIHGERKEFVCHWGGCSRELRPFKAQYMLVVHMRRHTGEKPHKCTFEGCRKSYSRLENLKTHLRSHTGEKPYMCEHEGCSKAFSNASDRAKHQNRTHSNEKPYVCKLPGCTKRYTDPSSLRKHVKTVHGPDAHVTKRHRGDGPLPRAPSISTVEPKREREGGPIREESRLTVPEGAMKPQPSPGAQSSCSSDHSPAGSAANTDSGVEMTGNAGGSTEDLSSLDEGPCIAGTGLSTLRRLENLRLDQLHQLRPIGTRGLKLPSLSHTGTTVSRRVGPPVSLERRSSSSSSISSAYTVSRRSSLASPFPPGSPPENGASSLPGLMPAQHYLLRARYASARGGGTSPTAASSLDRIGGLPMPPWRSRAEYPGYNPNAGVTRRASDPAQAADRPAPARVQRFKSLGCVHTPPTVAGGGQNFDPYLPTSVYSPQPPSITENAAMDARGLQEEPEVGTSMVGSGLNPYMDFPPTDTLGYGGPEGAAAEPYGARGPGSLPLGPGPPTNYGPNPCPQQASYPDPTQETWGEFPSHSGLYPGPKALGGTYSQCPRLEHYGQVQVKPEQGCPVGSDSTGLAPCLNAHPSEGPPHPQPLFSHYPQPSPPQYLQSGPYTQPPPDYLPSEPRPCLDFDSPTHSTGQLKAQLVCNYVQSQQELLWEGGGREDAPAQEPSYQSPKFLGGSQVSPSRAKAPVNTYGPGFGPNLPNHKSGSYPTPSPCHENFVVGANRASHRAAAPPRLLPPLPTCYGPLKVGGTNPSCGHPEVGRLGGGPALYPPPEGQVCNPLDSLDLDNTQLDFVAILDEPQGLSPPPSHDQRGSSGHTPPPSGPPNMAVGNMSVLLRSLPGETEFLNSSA
GLI1(S102/104/130/132A) mutant (P08151, form named): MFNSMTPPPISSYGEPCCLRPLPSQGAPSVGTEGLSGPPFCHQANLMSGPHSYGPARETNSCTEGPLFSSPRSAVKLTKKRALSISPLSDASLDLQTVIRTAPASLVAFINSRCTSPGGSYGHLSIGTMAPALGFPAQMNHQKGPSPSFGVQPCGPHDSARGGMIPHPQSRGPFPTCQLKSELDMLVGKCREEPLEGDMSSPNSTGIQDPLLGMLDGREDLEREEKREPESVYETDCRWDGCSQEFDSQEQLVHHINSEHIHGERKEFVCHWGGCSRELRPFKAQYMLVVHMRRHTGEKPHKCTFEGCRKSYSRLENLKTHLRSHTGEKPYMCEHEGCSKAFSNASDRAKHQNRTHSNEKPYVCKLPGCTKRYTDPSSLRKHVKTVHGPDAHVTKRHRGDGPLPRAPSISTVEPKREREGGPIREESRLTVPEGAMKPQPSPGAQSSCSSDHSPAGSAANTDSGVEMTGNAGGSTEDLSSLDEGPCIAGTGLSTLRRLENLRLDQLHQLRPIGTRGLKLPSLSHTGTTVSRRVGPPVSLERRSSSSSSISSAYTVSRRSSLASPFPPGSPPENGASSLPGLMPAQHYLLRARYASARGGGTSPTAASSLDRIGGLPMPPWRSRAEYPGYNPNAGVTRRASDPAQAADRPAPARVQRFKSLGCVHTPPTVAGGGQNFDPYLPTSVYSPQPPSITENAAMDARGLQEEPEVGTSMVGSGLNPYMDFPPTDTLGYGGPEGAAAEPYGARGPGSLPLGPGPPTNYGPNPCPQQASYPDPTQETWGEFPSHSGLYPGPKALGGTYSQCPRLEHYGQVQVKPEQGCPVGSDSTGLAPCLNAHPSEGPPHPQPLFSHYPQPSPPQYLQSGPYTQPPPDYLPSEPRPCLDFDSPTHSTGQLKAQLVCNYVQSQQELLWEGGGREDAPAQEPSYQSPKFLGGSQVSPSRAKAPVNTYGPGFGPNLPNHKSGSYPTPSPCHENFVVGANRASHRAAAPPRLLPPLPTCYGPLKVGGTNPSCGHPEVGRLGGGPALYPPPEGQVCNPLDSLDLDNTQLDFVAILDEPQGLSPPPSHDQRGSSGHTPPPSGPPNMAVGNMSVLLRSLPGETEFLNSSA
GLI1 S102/104/130/132D (S4D; phosphomimicking) mutant (P08151, form named): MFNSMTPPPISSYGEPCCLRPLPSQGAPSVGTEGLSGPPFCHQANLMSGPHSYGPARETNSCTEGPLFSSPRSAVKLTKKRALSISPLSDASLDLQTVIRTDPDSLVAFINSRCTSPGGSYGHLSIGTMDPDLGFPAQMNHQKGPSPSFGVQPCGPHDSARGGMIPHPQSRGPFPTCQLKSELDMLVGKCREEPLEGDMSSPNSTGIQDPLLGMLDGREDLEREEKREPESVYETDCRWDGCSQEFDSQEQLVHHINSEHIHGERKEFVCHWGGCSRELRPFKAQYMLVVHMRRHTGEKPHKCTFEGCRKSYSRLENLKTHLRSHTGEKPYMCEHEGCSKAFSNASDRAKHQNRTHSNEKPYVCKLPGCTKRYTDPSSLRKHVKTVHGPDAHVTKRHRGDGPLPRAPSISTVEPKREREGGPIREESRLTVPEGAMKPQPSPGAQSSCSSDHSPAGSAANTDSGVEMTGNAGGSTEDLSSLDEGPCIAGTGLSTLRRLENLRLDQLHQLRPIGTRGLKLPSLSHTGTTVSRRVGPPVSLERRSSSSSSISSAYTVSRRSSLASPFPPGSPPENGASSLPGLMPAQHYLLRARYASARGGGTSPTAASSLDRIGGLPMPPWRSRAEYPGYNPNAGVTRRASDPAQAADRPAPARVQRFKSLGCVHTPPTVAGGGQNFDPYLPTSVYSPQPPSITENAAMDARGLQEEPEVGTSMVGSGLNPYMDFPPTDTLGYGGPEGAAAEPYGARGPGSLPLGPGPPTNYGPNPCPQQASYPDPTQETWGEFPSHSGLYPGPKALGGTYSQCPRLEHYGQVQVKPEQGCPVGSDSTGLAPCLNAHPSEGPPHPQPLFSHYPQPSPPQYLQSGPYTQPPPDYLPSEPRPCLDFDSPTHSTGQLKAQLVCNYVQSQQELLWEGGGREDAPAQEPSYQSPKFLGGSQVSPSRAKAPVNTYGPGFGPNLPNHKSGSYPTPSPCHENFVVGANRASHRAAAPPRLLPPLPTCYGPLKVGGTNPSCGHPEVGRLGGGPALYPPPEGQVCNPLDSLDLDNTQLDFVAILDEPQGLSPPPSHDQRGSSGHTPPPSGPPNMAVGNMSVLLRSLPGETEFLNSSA

Experiments:
[1] = biological target: T1, suppressor of fused (SUFU), exogenous (UniProt Q9UMX1); assay: co-IP; exogenous SUFU and GLI1 (wild type or mutant) co-transfected in HEK293T cells; without DYRK1A, or with kinase-dead DYRK1A K188R
T1 sequence: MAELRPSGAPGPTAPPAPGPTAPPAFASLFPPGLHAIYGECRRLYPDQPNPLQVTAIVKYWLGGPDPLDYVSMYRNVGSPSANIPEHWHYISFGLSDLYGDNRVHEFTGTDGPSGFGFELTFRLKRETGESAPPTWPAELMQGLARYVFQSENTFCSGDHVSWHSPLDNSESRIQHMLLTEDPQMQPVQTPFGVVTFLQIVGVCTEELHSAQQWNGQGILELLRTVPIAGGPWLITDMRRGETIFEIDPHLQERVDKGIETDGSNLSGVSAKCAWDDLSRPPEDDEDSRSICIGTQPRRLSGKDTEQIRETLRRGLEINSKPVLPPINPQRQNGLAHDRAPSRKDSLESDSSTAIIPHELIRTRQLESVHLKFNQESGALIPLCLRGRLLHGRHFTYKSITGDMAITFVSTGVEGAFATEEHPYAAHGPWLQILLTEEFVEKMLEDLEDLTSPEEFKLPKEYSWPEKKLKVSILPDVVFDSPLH

[2] = biological target: T1, suppressor of fused (SUFU), exogenous; assay: co-IP; exogenous SUFU and GLI1 (wild type or mutant) in HEK293T cells with co-transfected active DYRK1A
[3] = biological target: T2, Jumonji domain demethylase 1A (JMJD1A, KDM3A), endogenous (human (endogenous in Hek293T)) (UniProt Q9Y4C1); assay: co-IP; endogenous KDM3A and endogenous GLI1 in Hek293T cells
T2 sequence: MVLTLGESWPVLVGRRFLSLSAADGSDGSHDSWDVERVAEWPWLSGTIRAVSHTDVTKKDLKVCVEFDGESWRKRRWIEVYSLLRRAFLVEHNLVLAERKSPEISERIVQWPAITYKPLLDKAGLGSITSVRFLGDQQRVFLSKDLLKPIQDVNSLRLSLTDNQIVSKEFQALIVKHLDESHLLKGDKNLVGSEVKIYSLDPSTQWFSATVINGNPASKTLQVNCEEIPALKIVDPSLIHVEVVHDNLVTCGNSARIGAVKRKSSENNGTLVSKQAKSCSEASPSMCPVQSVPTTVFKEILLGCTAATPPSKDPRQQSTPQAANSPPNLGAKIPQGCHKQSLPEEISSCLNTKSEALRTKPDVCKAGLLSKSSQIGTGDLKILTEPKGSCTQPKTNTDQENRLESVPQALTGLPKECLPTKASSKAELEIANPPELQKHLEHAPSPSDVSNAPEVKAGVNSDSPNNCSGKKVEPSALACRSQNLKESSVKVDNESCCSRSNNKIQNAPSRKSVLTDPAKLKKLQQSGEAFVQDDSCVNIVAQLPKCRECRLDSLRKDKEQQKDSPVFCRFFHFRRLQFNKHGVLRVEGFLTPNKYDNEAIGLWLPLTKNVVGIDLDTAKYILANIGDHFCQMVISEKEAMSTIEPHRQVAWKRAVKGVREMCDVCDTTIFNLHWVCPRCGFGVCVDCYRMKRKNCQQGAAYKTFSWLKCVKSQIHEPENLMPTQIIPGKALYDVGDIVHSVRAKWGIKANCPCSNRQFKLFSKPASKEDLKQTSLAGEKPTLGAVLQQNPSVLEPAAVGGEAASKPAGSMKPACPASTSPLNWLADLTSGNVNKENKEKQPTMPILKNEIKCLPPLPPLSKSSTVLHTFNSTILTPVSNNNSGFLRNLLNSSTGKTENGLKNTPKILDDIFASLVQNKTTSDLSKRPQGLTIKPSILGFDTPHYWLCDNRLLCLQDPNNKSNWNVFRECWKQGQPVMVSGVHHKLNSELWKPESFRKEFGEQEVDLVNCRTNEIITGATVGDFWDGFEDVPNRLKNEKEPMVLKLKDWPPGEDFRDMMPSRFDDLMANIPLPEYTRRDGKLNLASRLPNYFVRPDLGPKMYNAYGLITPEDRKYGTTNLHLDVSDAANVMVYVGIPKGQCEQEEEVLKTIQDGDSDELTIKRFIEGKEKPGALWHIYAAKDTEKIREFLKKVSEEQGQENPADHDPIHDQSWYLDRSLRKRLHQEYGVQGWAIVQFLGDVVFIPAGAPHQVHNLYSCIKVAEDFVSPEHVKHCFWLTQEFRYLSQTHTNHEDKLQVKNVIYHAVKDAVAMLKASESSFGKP

binding [1]	binding [3]	Substance	binding [2]
binds		GLI1(S102/104/130/132A) mutant (from UniProt P08151 1-1106)	no binding (condition: with co-transfected DYRK1A)
	binds	GLI1, endogenous (from UniProt P08151 1-1106)	
binds		GLI1 S102/104/130/132D (S4D; phosphomimicking) mutant (from UniProt P08151 1-1106)	no binding (condition: with co-transfected DYRK1A)
binds		GLI1 (exogenous, wild type) (from UniProt P08151 1-1106)	no binding (condition: with co-transfected DYRK1A)
